Key:
[1] = target: T1, human IL10R (IL-10 receptor on the H_IL10 Reporter 293 Cell Line) (human, UniProt Q13651 22-578); test: cell-based or functional assay
T1 sequence (looked up): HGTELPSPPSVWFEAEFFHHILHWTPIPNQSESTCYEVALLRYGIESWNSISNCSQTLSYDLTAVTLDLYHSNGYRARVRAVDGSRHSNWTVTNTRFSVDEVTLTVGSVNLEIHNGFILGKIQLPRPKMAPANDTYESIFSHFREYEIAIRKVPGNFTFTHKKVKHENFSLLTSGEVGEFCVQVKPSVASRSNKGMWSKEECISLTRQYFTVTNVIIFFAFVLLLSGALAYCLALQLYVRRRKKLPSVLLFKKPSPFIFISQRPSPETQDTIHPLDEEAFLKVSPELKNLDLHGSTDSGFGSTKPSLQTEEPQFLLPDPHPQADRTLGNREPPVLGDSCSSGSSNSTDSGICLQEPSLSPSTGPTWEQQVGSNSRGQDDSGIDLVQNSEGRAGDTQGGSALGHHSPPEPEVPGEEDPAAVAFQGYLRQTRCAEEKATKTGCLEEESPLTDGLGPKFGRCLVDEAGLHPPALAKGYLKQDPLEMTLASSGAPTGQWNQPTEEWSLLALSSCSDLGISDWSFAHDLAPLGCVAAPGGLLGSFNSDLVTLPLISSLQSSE

cyno PD-1 = target: T2, cyno PD-1 (cyno, UniProt B0LAJ3 25-288); test: FACS on CHO/cyno PD-1 cells
T2 construct: also called CHO/cyno PD-1; monkey PD-1

human IL10R1 = target: T3, human IL10R1 (human, UniProt Q13651 22-578); test: FACS on CHO/human IL10R1 cells
T3 construct: whole, on cells; also called CHO/human IL10R1
T3 sequence (looked up): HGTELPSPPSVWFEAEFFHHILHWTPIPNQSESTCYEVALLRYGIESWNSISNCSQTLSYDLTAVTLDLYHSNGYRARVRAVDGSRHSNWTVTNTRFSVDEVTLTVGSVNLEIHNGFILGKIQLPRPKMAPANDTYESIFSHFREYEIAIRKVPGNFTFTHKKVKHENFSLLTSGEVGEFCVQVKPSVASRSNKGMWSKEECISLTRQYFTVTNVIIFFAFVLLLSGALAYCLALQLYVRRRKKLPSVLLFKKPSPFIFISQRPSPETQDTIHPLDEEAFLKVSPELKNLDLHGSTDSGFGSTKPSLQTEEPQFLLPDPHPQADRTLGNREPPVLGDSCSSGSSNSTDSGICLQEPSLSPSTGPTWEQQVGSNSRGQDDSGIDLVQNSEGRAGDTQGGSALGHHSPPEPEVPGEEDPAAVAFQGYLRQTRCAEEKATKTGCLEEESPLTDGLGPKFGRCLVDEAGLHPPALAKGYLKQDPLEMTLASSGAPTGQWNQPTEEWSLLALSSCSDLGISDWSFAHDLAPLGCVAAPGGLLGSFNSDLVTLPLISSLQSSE

human PD1 [2] = target: T4, human PD1 (human, UniProt Q15116 25-288); test: cell-based or functional assay
human PD1 [3] = target: T4, human PD1; test: FACS on CHO/human PD-1 cells
human PD1 [4] = target: T4, human PD1; test: FACS binding on CHO/human PD-1 cells (Example 12)
cyno IL10R1 = target: T5, cyno IL10R1 (cyno, UniProt A0A2K5WJ66 22-576); test: FACS on CHO/cyno IL10R1 cells
T5 construct: whole, on cells; also called CHO/cyno IL10R1; monkey IL10R1
T5 sequence: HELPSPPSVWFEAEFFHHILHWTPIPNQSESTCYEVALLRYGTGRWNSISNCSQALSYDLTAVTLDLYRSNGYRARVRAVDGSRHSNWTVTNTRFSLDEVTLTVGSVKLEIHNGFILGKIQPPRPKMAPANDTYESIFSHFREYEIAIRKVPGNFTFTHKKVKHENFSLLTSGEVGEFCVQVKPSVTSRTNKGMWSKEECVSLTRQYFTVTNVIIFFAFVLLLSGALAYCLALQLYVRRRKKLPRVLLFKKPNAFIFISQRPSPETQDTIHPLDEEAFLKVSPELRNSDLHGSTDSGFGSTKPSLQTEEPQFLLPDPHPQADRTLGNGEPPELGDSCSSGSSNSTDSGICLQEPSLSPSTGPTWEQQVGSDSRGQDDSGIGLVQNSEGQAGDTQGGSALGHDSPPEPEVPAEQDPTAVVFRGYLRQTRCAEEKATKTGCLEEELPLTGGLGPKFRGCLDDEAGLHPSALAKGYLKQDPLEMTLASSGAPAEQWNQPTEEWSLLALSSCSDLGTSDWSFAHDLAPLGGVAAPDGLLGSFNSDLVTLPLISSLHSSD

human PD1 [5] = target: T4, human PD1; test: FACS: blocking of human PD-L1-mFC (1 µg/mL) binding to CHO/human PD-1 cells
mouse PD-1 = target: T6, mouse PD-1 (mouse, UniProt Q02242 25-288); test: FACS on CHO/mouse PD-1 cells
T6 construct: whole, on cells; also called CHO/mouse PD-1
T6 sequence (looked up): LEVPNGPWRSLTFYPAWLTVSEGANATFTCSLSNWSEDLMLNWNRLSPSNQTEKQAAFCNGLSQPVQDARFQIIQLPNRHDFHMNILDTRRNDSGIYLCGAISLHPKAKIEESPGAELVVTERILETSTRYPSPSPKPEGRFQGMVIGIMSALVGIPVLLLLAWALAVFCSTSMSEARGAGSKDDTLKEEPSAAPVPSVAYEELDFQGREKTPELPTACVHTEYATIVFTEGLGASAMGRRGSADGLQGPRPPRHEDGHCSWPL

mouse IL10R1 = target: T7, mouse IL10R1 (mouse, UniProt Q61727 17-575); test: FACS on CHO/mouse IL10R1 cells
T7 construct: whole, on cells; also called CHO/mouse IL10R1
T7 sequence (looked up): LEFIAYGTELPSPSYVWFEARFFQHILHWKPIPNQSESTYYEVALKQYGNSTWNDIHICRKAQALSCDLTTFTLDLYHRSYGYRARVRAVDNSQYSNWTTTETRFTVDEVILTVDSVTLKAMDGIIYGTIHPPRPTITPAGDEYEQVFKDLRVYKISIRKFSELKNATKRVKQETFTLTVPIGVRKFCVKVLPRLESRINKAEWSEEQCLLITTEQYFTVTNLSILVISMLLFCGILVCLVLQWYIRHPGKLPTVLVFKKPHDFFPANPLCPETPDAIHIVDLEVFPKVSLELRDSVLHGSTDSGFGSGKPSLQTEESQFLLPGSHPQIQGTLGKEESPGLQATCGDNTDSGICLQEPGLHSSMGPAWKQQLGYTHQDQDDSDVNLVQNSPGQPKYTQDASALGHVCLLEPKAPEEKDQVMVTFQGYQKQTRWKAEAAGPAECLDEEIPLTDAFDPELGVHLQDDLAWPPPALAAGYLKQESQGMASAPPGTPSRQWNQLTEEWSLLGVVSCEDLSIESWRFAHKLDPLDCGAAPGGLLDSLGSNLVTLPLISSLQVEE

T4 sequence (Q15116 25-288): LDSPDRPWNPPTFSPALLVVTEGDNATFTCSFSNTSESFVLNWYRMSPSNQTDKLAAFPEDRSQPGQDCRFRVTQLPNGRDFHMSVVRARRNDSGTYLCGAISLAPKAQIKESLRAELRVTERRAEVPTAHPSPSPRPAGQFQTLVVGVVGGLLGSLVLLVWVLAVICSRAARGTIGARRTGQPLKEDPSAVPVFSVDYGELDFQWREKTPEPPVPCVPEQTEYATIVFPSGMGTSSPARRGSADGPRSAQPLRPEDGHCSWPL
Chain of cyno PD-1 (B0LAJ3 entry or part of it limits assumed, form in doubt): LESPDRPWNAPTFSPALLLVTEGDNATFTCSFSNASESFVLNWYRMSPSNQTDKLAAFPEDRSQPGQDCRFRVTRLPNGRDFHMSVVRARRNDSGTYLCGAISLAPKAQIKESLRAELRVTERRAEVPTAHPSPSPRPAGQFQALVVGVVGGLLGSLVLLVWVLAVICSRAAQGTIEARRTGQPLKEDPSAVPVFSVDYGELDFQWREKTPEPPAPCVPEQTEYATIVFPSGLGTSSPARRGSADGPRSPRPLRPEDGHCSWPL

B1: anti-PD1-IL10 fusion protein R1153 (other)
light: DIQMTQSPSSLSASVGDRVTITCRASKSVSTSGYSYMHWYQQKPGKAPKLLIYLAYHLESGVPSRFSGSGSGTDFTLTISSLQPEDFATYYCQHSWELPITFGQGTKLEIKRTVAAPSVFIFPPSDEQLKSGTASVVCLLNNFYPREAKVQWKVDNALQSGNSQESVTEQDSKDSTYSLSSTLTLSKADYEKHKVYACEVTHQGLSSPVTKSFNRGECGGGGSGGGGSGGGGSGGGGSGGQGTQSENSCTHFPGNLPNMLRDLRDAFSRVKTFFQMKDQLDNLLLKESLLEDFKGYLGCQALSEMIQFYLEEVMPQAENQDPDIKAHVNSLGENLKTLRLRLRRCHRFLPCENGGGSGGKSKAVEQVKNAFNKLQEKGIYKAMSEFDIFINYIEAYMTMKIRN
heavy: QVQLVQSGAEVKKPGASVKVSCKASGYTFTTYYMYWVRQAPGQGLEWMGGINPSNGGTNYAQKFQGRATMTVDTSTSTAYMELSSLRSEDTAVYYCTRRDSNYDGGFDYWGQGTTVTVSSASTKGPSVFPLAPSSKSTSGGTAALGCLVKDYFPEPVTVSWNSGALTSGVHTFPAVLQSSGLYSLSSVVTVPSSSLGTQTYICNVNHKPSNTKVDKRV[left out - human IgG1 Fc with changes]
notes: Antibody-cytokine fusion: modified monomeric IL10 linked to the C-terminus of the light chain of anti-PD1 antibody R1152; two identical first chains and two identical second chains; also called anti-hPD1-IL10M
EC50 of luciferase reporter gene activity on H_IL10 Reporter 293 Cell Line, enriched (with CHO/human PD-1 cells) [1]: 1.81 nM | EC50 of luciferase reporter gene activity on H_IL10 Reporter 293 Cell Line, non-enriched [1]: 9.24 nM | EC50 (cyno PD-1): 3.59 nM | EC50 (human IL10R1): 8.86 nM | EC50 of luciferase reporter gene activity (CHO-OKT3-hPD-L1 cells + Jurkat-NFAT-luc-hPD-1 cells) (human PD1 [2]): 5.07 nM | EC50 (human PD1 [3]): 6.04 nM | EC50 (human PD1 [4]): 7.3 nM | EC50 (cyno IL10R1): 4.65 nM | IC50 (human PD1 [5]): 8.62 nM | binding result (mouse PD-1): no binding | EC50 (mouse IL10R1): 2.32 nM
